The supplement of paper PMC8728848
This is one part of the list.

Tests used:
Test in all cases: glycan array binding signal (z-score within array); higher = stronger binding
Settings in all cases: glycan notation: IUPAC condensed, linker removed
[1] = target: Gal(b1-3)[Neu5Ac(a2-6)]GalNAc
Procedure, shortened: (§1)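 Columns mapping to the same glycan were averaged after glycan names were converted to IUPAC-condensed notation. The data come from 3228 arrays in the Consortium for Functional Glycomics database, limited to those with an available protein sequence. Binding is reported as a within-array Z-score averaged across arrays of one protein sequence and across linkers.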

[2] = target: Gal(b1-3)[Neu5Ac(a2-6)]GlcNAc
Procedure, shortened: as §1

[3] = target: Gal(b1-3)[Neu5Ac(a2-6)]GlcNAc(a1-4)Gal(b1-4)Glc
Procedure, shortened: as §1

[4] = target: Gal(b1-3)[Neu5Ac(b2-6)]GlcNAc
Procedure, shortened: as §1

[5] = target: Gal(b1-4)GalNAc(a1-3)[Fuc(a1-2)]Gal(b1-4)GlcNAc
Procedure, shortened: as §1

[6] = target: Gal(b1-4)GalNAc(b1-3)[Fuc(a1-2)]Gal(b1-4)GlcNAc
Procedure, shortened: as §1

Gal(b1-4)Glc = target: Gal(b1-4)Glc
Procedure, shortened: as §1

Gal(b1-4)Glc6S = target: Gal(b1-4)Glc6S
Procedure, shortened: as §1

Gal(b1-4)GlcNAc = target: Gal(b1-4)GlcNAc
Procedure, shortened: as §1

[7] = target: Gal(b1-4)GlcNAc(b1-2)Man(a1-3)[Gal(b1-4)GlcNAc(b1-2)Man(a1-6)]Man(b1-4)GlcNAc(b1-4)GlcNAc
Procedure, shortened: as §1

[8] = target: Gal(b1-4)GlcNAc(b1-3)Gal(b1-4)Glc
Procedure, shortened: as §1

[9] = target: Gal(b1-4)GlcNAc(b1-3)Gal(b1-4)GlcNAc
Procedure, shortened: as §1

[10] = target: Gal(b1-4)GlcNAc(b1-3)Gal(b1-4)GlcNAc(b1-3)Gal(b1-4)GlcNAc
Procedure, shortened: as §1

[11] = target: Gal(b1-4)GlcNAc(b1-3)Gal(b1-4)[Fuc(a1-3)]GlcNAc(b1-3)Gal(b1-4)[Fuc(a1-3)]GlcNAc
Procedure, shortened: as §1

[12] = target: Gal(b1-4)GlcNAc(b1-3)GalNAc
Procedure, shortened: as §1

[13] = target: Gal(b1-4)GlcNAc(b1-3)[Gal(b1-4)GlcNAc(b1-6)]GalNAc
Procedure, shortened: as §1

[14] = target: Gal(b1-4)GlcNAc(b1-6)GalNAc
Procedure, shortened: as §1

[15] = target: Gal(b1-4)GlcNAc(b1-6)[Gal(b1-3)]GalNAc
Procedure, shortened: as §1

[16] = target: Gal(b1-4)GlcNAc(b1-6)[Gal(b1-3)]GlcNAc
Procedure, shortened: as §1

Gal3S(b1-3)GalNAc = target: Gal3S(b1-3)GalNAc
Procedure, shortened: as §1

Gal3S(b1-3)GlcNAc = target: Gal3S(b1-3)GlcNAc
Procedure, shortened: as §1

[17] = target: Gal3S(b1-3)[Fuc(a1-4)]GlcNAc
Procedure, shortened: as §1

Gal3S(b1-4)Glc = target: Gal3S(b1-4)Glc
Procedure, shortened: as §1

Gal3S(b1-4)Glc6S = target: Gal3S(b1-4)Glc6S
Procedure, shortened: as §1

Gal3S(b1-4)GlcNAc = target: Gal3S(b1-4)GlcNAc
Procedure, shortened: as §1

Gal3S(b1-4)GlcNAc6S = target: Gal3S(b1-4)GlcNAc6S
Procedure, shortened: as §1

Gal3S6S(b1-4)GlcNAc = target: Gal3S6S(b1-4)GlcNAc
Procedure, shortened: as §1

Gal3S6S(b1-4)GlcNAc6S = target: Gal3S6S(b1-4)GlcNAc6S
Procedure, shortened: as §1

Gal4S(b1-4)GlcNAc = target: Gal4S(b1-4)GlcNAc
Procedure, shortened: as §1

Gal4S6S(b1-4)GlcNAc = target: Gal4S6S(b1-4)GlcNAc
Procedure, shortened: as §1

Gal6S(b1-4)Glc = target: Gal6S(b1-4)Glc
Procedure, shortened: as §1

Gal6S(b1-4)Glc6S = target: Gal6S(b1-4)Glc6S
Procedure, shortened: as §1

Gal6S(b1-4)GlcNAc = target: Gal6S(b1-4)GlcNAc
Procedure, shortened: as §1

GalNAc(a1-3)Gal = target: GalNAc(a1-3)Gal
Procedure, shortened: as §1

GalNAc(a1-3)GalNAc = target: GalNAc(a1-3)GalNAc
Procedure, shortened: as §1

[18] = target: GalNAc(b1-3)Gal(a1-4)Gal(b1-4)GlcNAc
Procedure, shortened: as §1

GalNAc(b1-4)GlcNAc = target: GalNAc(b1-4)GlcNAc
Procedure, shortened: as §1

Glc(a1-4)Glc = target: Glc(a1-4)Glc
Procedure, shortened: as §1

Glc(a1-6)Glc(a1-6)Glc = target: Glc(a1-6)Glc(a1-6)Glc
Procedure, shortened: as §1

Glc(b1-4)Glc = target: Glc(b1-4)Glc
Procedure, shortened: as §1

Glc(b1-6)Glc = target: Glc(b1-6)Glc
Procedure, shortened: as §1

GlcA(b1-3)Gal = target: GlcA(b1-3)Gal
Procedure, shortened: as §1

GlcA(b1-6)Gal = target: GlcA(b1-6)Gal
Procedure, shortened: as §1

[19] = target: GlcNAc(a1-3)Gal(b1-4)GlcNAc
Procedure, shortened: as §1

[20] = target: GlcNAc(a1-6)Gal(b1-4)GlcNAc
Procedure, shortened: as §1

[21] = target: GlcNAc(b1-2)Gal(b1-3)GlcNAc
Procedure, shortened: as §1

[22] = target: GlcNAc(b1-2)Man(a1-3)[GlcNAc(b1-2)Man(a1-6)]Man(b1-4)GlcNAc(b1-4)GlcNAc
Procedure, shortened: as §1

GlcNAc(b1-3)Gal = target: GlcNAc(b1-3)Gal
Procedure, shortened: as §1

[23] = target: GlcNAc(b1-3)Gal(b1-3)GalNAc
Procedure, shortened: as §1

GlcNAc(b1-3)Gal(b1-4)Glc = target: GlcNAc(b1-3)Gal(b1-4)Glc
Procedure, shortened: as §1

[24] = target: GlcNAc(b1-3)Gal(b1-4)GlcNAc
Procedure, shortened: as §1

[25] = target: GlcNAc(b1-3)Gal(b1-4)GlcNAc(b1-3)Gal(b1-4)GlcNAc
Procedure, shortened: as §1

GlcNAc(b1-3)GalNAc = target: GlcNAc(b1-3)GalNAc
Procedure, shortened: as §1

[26] = target: GlcNAc(b1-3)[GlcNAc(b1-4)][GlcNAc(b1-6)]GlcNAc
Procedure, shortened: as §1

[27] = target: GlcNAc(b1-3)[GlcNAc(b1-6)]Gal(b1-4)GlcNAc
Procedure, shortened: as §1

[28] = target: GlcNAc(b1-3)[GlcNAc(b1-6)]GlcNAc
Procedure, shortened: as §1

[29] = target: GlcNAc(b1-4)Gal(b1-4)GlcNAc
Procedure, shortened: as §1

[30] = target: GlcNAc(b1-4)GlcNAc(b1-4)GlcNAc
Procedure, shortened: as §1

[31] = target: GlcNAc(b1-4)GlcNAc(b1-4)GlcNAc(b1-4)GlcNAc(b1-4)GlcNAc
Procedure, shortened: as §1

[32] = target: GlcNAc(b1-4)GlcNAc(b1-4)GlcNAc(b1-4)GlcNAc(b1-4)GlcNAc(b1-4)GlcNAc
Procedure, shortened: as §1

B1: HMGB1 (Rattus norvegicus), P63159 (protein)
chain: MGKGDPKKPRGKMSSYAFFVQTCREEHKKKHPDASVNFSEFSKKCSERWKTMSAKEKGKFEDMAKADKARYEREMKTYIPPKGETKKKFKDPNAPKRPPSAFFLFCSEYRPKIKGEHPGLSIGDVAKKLGEMWNNTAADDKQPYEKKAAKLKEKYEKDIAAYRAKGKPDAAKKGVVKAEKSKKKKEEEDDEEDEEDEEEEEEEEDEDEEEDDDDE
glycan array binding signal (z-score) [1]: -0.379 | glycan array binding signal (z-score) [2]: -0.352 | glycan array binding signal (z-score) [3]: 0.108 | glycan array binding signal (z-score) [4]: -0.219 | glycan array binding signal (z-score) [5]: 0.027 | glycan array binding signal (z-score) [6]: -0.322 | glycan array binding signal (z-score) (Gal(b1-4)Glc): -0.487 | glycan array binding signal (z-score) (Gal(b1-4)Glc6S): 0.01 | glycan array binding signal (z-score) (Gal(b1-4)GlcNAc): -0.621 | glycan array binding signal (z-score) [7]: 0.168 | glycan array binding signal (z-score) [8]: 0.051 | glycan array binding signal (z-score) [9]: -0.641 | glycan array binding signal (z-score) [10]: -0.588 | glycan array binding signal (z-score) [11]: -0.054 | glycan array binding signal (z-score) [12]: -0.647 | glycan array binding signal (z-score) [13]: 0.497 | glycan array binding signal (z-score) [14]: -0.594 | glycan array binding signal (z-score) [15]: 0.225 | glycan array binding signal (z-score) [16]: 2.37 | glycan array binding signal (z-score) (Gal3S(b1-3)GalNAc): -0.4 | glycan array binding signal (z-score) (Gal3S(b1-3)GlcNAc): -0.574 | glycan array binding signal (z-score) [17]: 0.205 | glycan array binding signal (z-score) (Gal3S(b1-4)Glc): -0.225 | glycan array binding signal (z-score) (Gal3S(b1-4)Glc6S): 0.187 | glycan array binding signal (z-score) (Gal3S(b1-4)GlcNAc): 0.957 | glycan array binding signal (z-score) (Gal3S(b1-4)GlcNAc6S): -0.518 | glycan array binding signal (z-score) (Gal3S6S(b1-4)GlcNAc): -0.159 | glycan array binding signal (z-score) (Gal3S6S(b1-4)GlcNAc6S): 0.389 | glycan array binding signal (z-score) (Gal4S(b1-4)GlcNAc): -0.583 | glycan array binding signal (z-score) (Gal4S6S(b1-4)GlcNAc): -0.337 | glycan array binding signal (z-score) (Gal6S(b1-4)Glc): -0.44 | glycan array binding signal (z-score) (Gal6S(b1-4)Glc6S): -0.435 | glycan array binding signal (z-score) (Gal6S(b1-4)GlcNAc): 0.122 | glycan array binding signal (z-score) (GalNAc(a1-3)Gal): 0.597 | glycan array binding signal (z-score) (GalNAc(a1-3)GalNAc): -0.361 | glycan array binding signal (z-score) [18]: 2.44 | glycan array binding signal (z-score) (GalNAc(b1-4)GlcNAc): -0.047 | glycan array binding signal (z-score) (Glc(a1-4)Glc): -0.351 | glycan array binding signal (z-score) (Glc(a1-6)Glc(a1-6)Glc): -0.297 | glycan array binding signal (z-score) (Glc(b1-4)Glc): -0.597 | glycan array binding signal (z-score) (Glc(b1-6)Glc): -0.508 | glycan array binding signal (z-score) (GlcA(b1-3)Gal): -0.66 | glycan array binding signal (z-score) (GlcA(b1-6)Gal): 0.038 | glycan array binding signal (z-score) [19]: -0.403 | glycan array binding signal (z-score) [20]: -0.663 | glycan array binding signal (z-score) [21]: -0.577 | glycan array binding signal (z-score) [22]: 0.033 | glycan array binding signal (z-score) (GlcNAc(b1-3)Gal): -0.129 | glycan array binding signal (z-score) [23]: -0.523 | glycan array binding signal (z-score) (GlcNAc(b1-3)Gal(b1-4)Glc): 0.617 | glycan array binding signal (z-score) [24]: -0.411 | glycan array binding signal (z-score) [25]: -0.369 | glycan array binding signal (z-score) (GlcNAc(b1-3)GalNAc): -0.446 | glycan array binding signal (z-score) [26]: -0.482 | glycan array binding signal (z-score) [27]: -0.499 | glycan array binding signal (z-score) [28]: -0.561 | glycan array binding signal (z-score) [29]: -0.031 | glycan array binding signal (z-score) [30]: -0.167 | glycan array binding signal (z-score) [31]: 0.04 | glycan array binding signal (z-score) [32]: 0.339
